From the supplement of paper PMC11125491
± gives the standard deviation of the averaged measurements. Growth of baker's yeast expressing single-residue variants of Pneumocystis jirovecii dihydrofolate reductase in 8.8 or 44 µM methotrexate (about 75% and 90% inhibition of the wild type). Selection coefficient per generation; 0 = like wild type, above 0 = less sensitive, below 0 = more sensitive or loss of function. No active / inactive call per row; the paper calls resistant above 0.220 (8.8 µM) or 0.243 (44 µM) together with a significance test. At 44 µM about 15% of codons end with one read or none, so the lowest values are floors (replicate rank correlation 0.74; 0.94 at 8.8 µM).

B1: UniProt A0EPZ9; numbered along this chain (parent)
chain: MDWQKSLTLIVALTLSRGIGLKNDLPWKLKSDMMFFSRVTSGLLVTRSTGQMNVVLMGRKTWESLPAHSRPLKNRINVVISRQEVLDLGGGAYHARSLDDALALLSQIYDSTSKIQLNRVFVIGGGELCKAAMEHSRLNRIIATVIHNEVDCDVFFPIDFRSSQSCLPWRKQDHSVLEAWVGSKVPQGKINENGFIYEFEMWIRDI

Variants of: B1
Assay: selection coefficient against synonymous wild-type codons (log2 per generation); higher = faster growth than wild type
Details: with Saccharomyces cerevisiae carrying the variant on a plasmid
Protocol: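 Pooled growth of yeast carrying single-residue variants of P. jirovecii dihydrofolate reductase (own DFR1 gene intact), two passages at 30 °C, three cultures, sequenced before and after. Codons with under 15 starting reads are left out; codons of one change are averaged.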

| Variant | selection coefficient against synonymous wild-type codons (log2) (methotrexate 8.8 µM) | selection coefficient against synonymous wild-type codons (log2) (methotrexate 44 µM) |
| --- | --- | --- |
| S162V | -0.128 ± 0.06 | -0.255 ± 0.23 |
| S162W | -0.103 ± 0.051 | -0.122 ± 0.078 |
| S162Y | -0.131 ± 0.0023 | -0.0972 ± 0.18 |
| S163A | -0.0366 ± 0.055 | -0.119 ± 0.1 |
| S163C | -0.118 ± 0.068 | -0.169 ± 0.03 |
| S163D | 0.00417 ± 0.017 | -0.0659 ± 0.018 |
| S163E | 0.00331 ± 0.036 | -0.0246 ± 0.12 |
| S163F | -0.0863 ± 0.058 | -0.149 ± 0.092 |
| S163G | -0.0304 ± 0.048 | -0.0659 ± 0.062 |
| S163H | -0.0115 ± 0.096 | -0.0748 ± 0.12 |
| S163I | -0.104 ± 0.012 | -0.158 ± 0.18 |
| S163K | 0.00428 ± 0.031 | -0.12 ± 0.092 |
| S163L | -0.0653 ± 0.062 | -0.0162 ± 0.11 |
| S163M | -0.0143 ± 0.022 | -0.00207 ± 0.021 |
| S163N | 0.0357 ± 0.018 | -0.0184 ± 0.059 |
| S163P | -0.00587 ± 0.036 | 0.0741 ± 0.27 |
| S163Q | 0.0352 ± 0.048 | 0.00385 ± 0.03 |
| S163R | -0.107 ± 0.049 | -0.139 ± 0.11 |
| S163T | -0.0356 ± 0.039 | -0.0447 ± 0.061 |
| S163V | -0.038 ± 0.036 | -0.156 ± 0.1 |
| S163W | -0.184 ± 0.065 | 0.115 ± 0.2 |
| S163Y | -0.11 ± 0.12 | -0.196 ± 0.072 |
| Q164A | -0.0434 ± 0.032 | -0.1 ± 0.069 |
| Q164C | -0.18 ± 0.046 | -0.257 ± 0.25 |

| Variant | selection coefficient against synonymous wild-type codons (log2) (methotrexate 8.8 µM) | selection coefficient against synonymous wild-type codons (log2) (methotrexate 44 µM) |
| --- | --- | --- |
| Q164D | -0.0545 ± 0.1 | -0.0424 ± 0.099 |
| Q164E | -0.0495 ± 0.066 | -0.114 ± 0.083 |
| Q164F | -0.0669 ± 0.043 | -0.136 ± 0.097 |
| Q164G | -0.0503 ± 0.036 | -0.102 ± 0.077 |
| Q164H | 0.00678 ± 0.052 | 0.18 ± 0.019 |
| Q164I | -0.000516 ± 0.033 | -0.183 ± 0.16 |
| Q164K | -0.0172 ± 0.039 | -0.0793 ± 0.036 |
| Q164L | -0.0186 ± 0.042 | -0.0758 ± 0.1 |
| Q164M | -0.0446 ± 0.02 | -0.134 ± 0.071 |
| Q164N | -0.0239 ± 0.086 | -0.18 ± 0.13 |
| Q164P | 0.0111 ± 0.061 | -0.101 ± 0.16 |
| Q164R | -0.0808 ± 0.066 | -0.151 ± 0.061 |
| Q164S | -0.106 ± 0.11 | -0.0827 ± 0.081 |
| Q164T | -0.063 ± 0.018 | -0.0871 ± 0.13 |
| Q164V | -0.0558 ± 0.033 | -0.0748 ± 0.074 |
| Q164W | -0.167 ± 0.049 | -0.284 ± 0.065 |
| Q164Y | -0.122 ± 0.097 | -0.12 ± 0.049 |
| S165A | 0.0027 ± 0.046 | -0.0718 ± 0.094 |
| S165C | -0.0437 ± 0.071 | -0.0911 ± 0.088 |
| S165D | 0.0791 ± 0.027 | 0.0543 ± 0.14 |
| S165E | 0.0578 ± 0.028 | 0.00338 ± 0.1 |
| S165F | -0.0717 ± 0.01 | -0.0551 ± 0.021 |
| S165G | 0.0252 ± 0.035 | -0.0291 ± 0.093 |
| S165H | -0.0303 ± 0.067 | -0.0357 ± 0.13 |

| Variant | selection coefficient against synonymous wild-type codons (log2) (methotrexate 8.8 µM) | selection coefficient against synonymous wild-type codons (log2) (methotrexate 44 µM) |
| --- | --- | --- |
| S165I | 0.0123 ± 0.035 | -0.0908 ± 0.061 |
| S165K | 0.0934 ± 0.051 | 0.0931 ± 0.032 |
| S165L | 0.0343 ± 0.028 | 0.0102 ± 0.068 |
| S165M | 0.00607 ± 0.029 | 0.081 ± 0.043 |
| S165N | -0.0181 ± 0.039 | -0.0472 ± 0.14 |
| S165P | 0.028 ± 0.049 | -0.0865 ± 0.14 |
| S165Q | 0.0265 ± 0.028 | -0.0149 ± 0.03 |
| S165R | -0.0122 ± 0.069 | -0.102 ± 0.086 |
| S165T | -0.0223 ± 0.034 | -0.111 ± 0.066 |
| S165V | 0.00619 ± 0.043 | -0.0701 ± 0.11 |
| S165W | -0.0799 ± 0.028 | -0.219 ± 0.1 |
| S165Y | -0.0753 ± 0.056 | -0.0796 ± 0.062 |
| C166A | 0.0101 ± 0.028 | 0.0148 ± 0.073 |
| C166D | -0.0394 ± 0.0065 | -0.0402 ± 0.013 |
| C166E | 0.0184 ± 0.027 | -0.0635 ± 0.11 |
| C166F | -0.134 ± 0.06 | -0.0889 ± 0.098 |
| C166G | -0.0586 ± 0.054 | -0.0787 ± 0.088 |
| C166I | -0.028 ± 0.015 | -0.127 ± 0.15 |
| C166K | 0.0485 ± 0.0098 | -0.0105 ± 0.043 |
| C166L | 0.00208 ± 0.05 | -0.0362 ± 0.081 |
| C166M | 0.011 ± 0.075 | -0.0718 ± 0.039 |
| C166N | -0.04 ± 0.042 | -0.161 ± 0.05 |
| C166P | -0.0379 ± 0.087 | -0.0488 ± 0.19 |
| C166Q | 0.00536 ± 0.053 | -0.152 ± 0.14 |

| Variant | selection coefficient against synonymous wild-type codons (log2) (methotrexate 8.8 µM) | selection coefficient against synonymous wild-type codons (log2) (methotrexate 44 µM) |
| --- | --- | --- |
| C166R | -0.0668 ± 0.065 | -0.115 ± 0.18 |
| C166S | 0.0169 ± 0.067 | -0.0424 ± 0.1 |
| C166T | -0.0104 ± 0.032 | -0.0887 ± 0.11 |
| C166V | -0.0033 ± 0.025 | -0.11 ± 0.15 |
| C166W | -0.12 ± 0.043 | -0.199 ± 0.12 |
| C166Y | -0.0268 ± 0.056 | -0.0757 ± 0.12 |
| L167A | 0.0172 ± 0.057 | -0.0879 ± 0.14 |
| L167C | -0.112 ± 0.12 | -0.113 ± 0.19 |
| L167D | -0.0418 ± 0.041 | -0.00945 ± 0.05 |
| L167E | 0.0214 ± 0.0092 | 0.0198 ± 0.094 |
| L167F | -0.0935 ± 0.096 | -0.159 ± 0.078 |
| L167G | -0.0316 ± 0.037 | -0.0797 ± 0.089 |
| L167H | -0.0785 ± 0.12 | -0.164 ± 0.068 |
| L167I | 0.103 ± 0.12 | -0.0353 ± 0.14 |
| L167K | -0.024 ± 0.041 | -0.117 ± 0.12 |
| L167M | -0.0256 ± 0.072 | -0.0588 ± 0.053 |
| L167N | 0.0291 ± 0.044 | -0.068 ± 0.073 |
| L167P | 0.0197 ± 0.053 | -0.126 ± 0.099 |
| L167Q | -0.000736 ± 0.013 | -0.115 ± 0.18 |
| L167R | -0.0278 ± 0.027 | -0.0856 ± 0.15 |
| L167S | 0.0207 ± 0.048 | 0.0194 ± 0.11 |
| L167T | -0.00224 ± 0.047 | -0.138 ± 0.14 |
| L167V | 0.0459 ± 0.05 | 0.0374 ± 0.047 |
| L167W | -0.195 ± 0.059 | -0.216 ± 0.0099 |

| Variant | selection coefficient against synonymous wild-type codons (log2) (methotrexate 8.8 µM) | selection coefficient against synonymous wild-type codons (log2) (methotrexate 44 µM) |
| --- | --- | --- |
| L167Y | -0.0995 ± 0.11 | -0.203 ± 0.072 |
| P168A | -0.0959 ± 0.08 | -0.262 ± 0.14 |
| P168C | -0.195 ± 0.08 | -0.102 ± 0.0047 |
| P168E | 0.0164 ± 0.0057 | -0.00934 ± 0.077 |
| P168F | -0.358 ± 0.079 | -0.291 ± 0.077 |
| P168G | -0.00434 ± 0.043 | 0.00312 ± 0.096 |
| P168H | -0.149 ± 0.039 | -0.088 ± 0.13 |
| P168I | -0.359 ± 0.09 | -0.181 ± 0.054 |
| P168K | -0.0984 ± 0.063 | -0.0528 ± 0.064 |
| P168L | -0.181 ± 0.043 | -0.222 ± 0.13 |
| P168M | -0.237 ± 0.089 | -0.309 ± 0.098 |
| P168N | -0.0753 ± 0.037 | -0.103 ± 0.082 |
| P168Q | -0.0785 ± 0.048 | -0.201 ± 0.13 |
| P168R | -0.128 ± 0.078 | -0.193 ± 0.15 |
| P168S | -0.0536 ± 0.078 | -0.0834 ± 0.19 |
| P168T | -0.109 ± 0.061 | -0.217 ± 0.095 |
| P168V | -0.236 ± 0.071 | -0.273 ± 0.09 |
| P168W | -0.268 ± 0.059 | -0.3 ± 0.069 |
| P168Y | -0.29 ± 0.12 | -0.145 ± 0.08 |
| W169A | 0.00781 ± 0.38 | 0.121 ± 0.45 |
